The results in this text go back to US20110028422A1 (priority 2007, published 2011).

Like-named read-outs stand apart in the source and are kept apart here.

The test system of test [1] is lymphocytes from B-CLL patients. The test is described as follows: cells. The note with it: Homo sapiens, 72 h, single agent, MTT 72 h.
For test [2] the test system is unchanged. Particulars: for patients tested whose CLL lymphocytes were sensitized (synergistic plus additive effect) to CLB: MTT.
[3] abbreviates: B-CLL lymphocytes of patient 9 (clinically untreated).
Where [4] appears, read: B-CLL lymphocytes of patient 14 (prior chlorambucil therapy).
Setting [5] is: B-CLL lymphocytes of patient 15 (prior chlorambucil therapy).
Where [6] appears, read: B-CLL lymphocytes of patient 16 (prior chlorambucil therapy).
[7] abbreviates: B-CLL lymphocytes of patient 18 (prior chlorambucil therapy).

Regarding `O=C(O)CCCc1ccc(N(CCCl)CCCl)cc1` [CLB, chlorambucil], the IC50 came to 11.7 µM in test [1] (setting [3]); 8.1 µM in test [1] (setting [4]); 49.7 µM in test [1] (setting [5]); 4.54 µM in test [1] (setting [6]); 66 µM in test [1] (setting [7]).

As to `Cc1cn(-c2cc(NC(=O)c3ccc(C)c(Nc4nccc(-c5cccnc5)n4)c3)cc(C(F)(F)F)c2)cn1` [Nilotinib, 4-methyl-3-[[4-(3-pyridinyl)-2-pyrimidinyl]amino]-N-[5-(4-methyl-1H-imidazol-1-yl)-3-(trifluoromethyl)phenyl]benzamide], the IC50 in test [1] (setting [3]) is above 100 µM; in test [1] (setting [4]), 33.2 µM; in test [1] (setting [5]), 19.9 µM; in test [1] (setting [6]), 9.61 µM; in test [1] (setting [7]), 28.7 µM. In test [2] (5 or 10 μM, FIGURE, p<0.001), the “sensitization of B-CLL lymphocytes to CLB compared with imatinib” value is listed as “statistically more potent”. The “patients tested whose CLL lymphocytes were sensitized (synergistic plus additive effect) to CLB” value in test [2] (c-abl inhibitor at 1 μM) worked out at 84.6%; in test [2] (c-abl inhibitor at 5 μM) it was 100%; in test [2] (c-abl inhibitor at 10 μM) it was 90.5%.

What is called IC50 is the concentration that inhibits the measured activity by half.
